Measurements: ChEMBL document CHEMBL4888484, “Replenishing the malaria drug discovery pipeline: Screening and hit evaluation of the MMV Hit Generation Library 1 (HGL1) against asexual blood stage Plasmodium falciparum ,using a nano luciferase reporter read-out” (2022)
About 540 (0.36%) of roughly 150,000 compounds showed an effect of 50% or more. Some of the results follow.

The compounds below were run on Plasmodium falciparum (assay: Primary screen in NF54 nanoGlo assay, in single point, at 2uM, 72h; a lower Z score goes with more inhibition). Settings: timepoint 72 hour.
Assay type: functional, Erythrocyte
`O=C(O)[C@H](Cc1ccccc1)NC(=O)[C@H](Cc1ccccc1)n1c(=O)[nH]c2ccccc2c1=O` was tested, and the “% Inhibition” value was 2% and the Z score was -0.43. For `O=C(CC1(O)CCOCC1)N1CCC[C@H](C2CCOCC2)C1`, the “% Inhibition” value was -3% and the Z score was 0.56. For `Cc1ccncc1NC(=O)c1cccnc1O[C@H]1CCOC1`, the “% Inhibition” value was -9% and the Z score was 1.7. For `CN1CCC2(CCCN(C(=O)Cc3cccc(F)c3F)CC2)CC1`, the “% Inhibition” value was -17% and the Z score was 1.68. `CC(C)NC(=O)N1CCN(C(=O)NC(C)C)[C@@H](C(=O)N[C@@H](CC2CCCCC2)C(N)=O)C1` was tested, and the “% Inhibition” value was 8% and the Z score was -1.02. For `O=C1NC2(CCN(C(=O)c3ccc(F)cc3)CC2)Nc2cc(F)c(F)cc21`, the “% Inhibition” value was 3% and the Z score was -0.54. For `CN(Cc1ccc2c(c1)OCO2)c1ncccc1C(N)=O`, the “% Inhibition” value was 1% and the Z score was -0.24. In the case of `COc1cccc(C2CN(Cc3ccc(Cl)cc3)CC2CN(CC(C)C)C(=O)C(C)C)c1` (configuration not stated), the “% Inhibition” value is reported as -17% and the Z score is reported as 1.63. With `O=S1(=O)CCC(CNC(CC2CCC2)c2ccccc2)C1` (configuration not stated) the “% Inhibition” value was 1% and the Z score was -0.09. `FC(F)(F)c1cccc(-c2c[nH]c([C@@H]3CCCN3Cc3nnc(-c4ccccc4)o3)n2)c1` was tested, and the “% Inhibition” value was -4% and the Z score was 0.42. For `COCC(=O)N(Cc1ccc(C)cc1)c1cccc(CC(=O)N(C)Cc2ccco2)c1`, the “% Inhibition” value was -18% and the Z score was 2.45. For `COC(=O)C[C@](C)(NC(=O)Cc1csc(C(C)C)n1)c1ccncc1`, the “% Inhibition” value was -7% and the Z score was 0.83. In the case of `CCn1ncc(C(=O)N2CC(=O)N3C[C@@H](OC)C[C@H]3C2)c1C`, the “% Inhibition” value is reported as -3% and the Z score is reported as 0.41. With `CN(C(=O)c1cc2ccccc2[nH]1)C1CCCC1` the “% Inhibition” value was 28% and the Z score was -3.83. In the case of `CN1CC2(CCC1=O)CCN(C(=O)c1cc(-c3ccccc3F)n[nH]1)CC2`, the “% Inhibition” value is reported as -2% and the Z score is reported as 0.46. For `O=C1C2CCCC1CC(C(=O)N1CCCc3ccccc31)C2` (configuration not stated), the “% Inhibition” value was -6% and the Z score was 1.14. In the case of `Cc1ccc(N(C)C2CCN(C(=O)C3CC3c3ccco3)CC2)nn1` (configuration not stated), the “% Inhibition” value is reported as 4% and the Z score is reported as -0.74. In the case of `N#Cc1cc(C(=O)N2CCC[C@H]2Cn2cc(C3CC3)nn2)ccc1F`, the “% Inhibition” value is reported as -12% and the Z score is reported as 1.32. For `Cn1c(C(F)(F)F)nn(C2CCN(CC#N)CC2)c1=O`, the “% Inhibition” value was 6% and the Z score was -0.67. `O=C(NCc1cc[nH]n1)c1ccc(-c2ccco2)[nH]c1=O` was tested, and the “% Inhibition” value was -9% and the Z score was 1.06. With `COCn1nc(C)c(S(=O)(=O)N2CC=C(C(C)(C)C)CC2)c1C` the “% Inhibition” value was 0% and the Z score was 0.03. With `O=S1(=O)CCC[C@@]2(C(F)(F)F)CN(CC3(O)CCC3)C[C@H]21` the “% Inhibition” value was -11% and the Z score was 2.02. `Cc1ccc(-c2nc(C(=O)NCCc3ccc(Cl)cc3)cs2)n1C` was tested, and the “% Inhibition” value was -16% and the Z score was 1.86. For `Cn1c(N2CCC[C@H]2C(=O)NC2CC2)nc2ccccc21`, the “% Inhibition” value was -8% and the Z score was 0.91. In the case of `CCOC(=O)N1CCCC[C@H](NC2CCN(c3ccc(F)c(F)c3)CC2)C1`, the “% Inhibition” value is reported as 4% and the Z score is reported as -0.83. `CC1CCc2c(cnc3c(C(=O)NC4CCCC(C)C4C)cnn23)C1` (configuration not stated) was tested, and the “% Inhibition” value was 0% and the Z score was 0.01. In the case of `CCn1nc(CC(N)=O)nc1-c1ccc(N)nc1`, the “% Inhibition” value is reported as -3% and the Z score is reported as 0.55. `COc1ccc(-c2nc3c([nH]2)CCN(C(=O)CC[C@@H]2NC(=O)NC2=O)C3)cn1` was tested, and the “% Inhibition” value was -6% and the Z score was 1.11. With `CCCCn1nc(C)nc1CCC(=O)c1ccccc1` the “% Inhibition” value was 7% and the Z score was -0.67. In the case of `O=C(NC1CC1)c1ccccc1NCc1c(F)cccc1Cl`, the “% Inhibition” value is reported as -9% and the Z score is reported as 1.41. For `CCC1(CC)NC(=O)N(CC(=O)N2CC(O)CC2c2ccccc2)C1=O` (configuration not stated), the “% Inhibition” value was -7% and the Z score was 1.07. `Cc1cccc(NC(=O)CCN2CCS(=O)(=O)CC2)c1C` was tested, and the “% Inhibition” value was -11% and the Z score was 1.92. `CN(C(=O)CCS(C)(=O)=O)c1cc(Cl)cc(Cl)c1` was tested, and the “% Inhibition” value was -11% and the Z score was 1.76. For `Cc1nn(C)c(Cl)c1S(=O)(=O)N1CCC[C@H](C(=O)c2ccc3c(c2)OCO3)C1`, the “% Inhibition” value was -13% and the Z score was 1.39. `O=C(c1nc2ccccc2[nH]1)N1CCc2[nH]c(-c3cccnc3)nc2C1` was tested, and the “% Inhibition” value was -10% and the Z score was 0.9. With `CCC(C)NC(=O)[C@H](Cc1c[nH]c2ccccc12)NC(=O)OCc1ccccc1` (some centres not stated) the “% Inhibition” value was -7% and the Z score was 1.08. For `CC[C@H]1[C@H](NC(=O)c2cccc(N3CCS(=O)(=O)CC3)c2)[C@H]2CCO[C@H]21`, the “% Inhibition” value was 3% and the Z score was -0.47. With `COc1ccc(Cn2c(C)cc(O)c([C@H](c3ccccn3)N3CCN(c4ccccc4)CC3)c2=O)cc1` the “% Inhibition” value was -4% and the Z score was 0.58. `CCC1C(c2ccc(C)cc2)CCN1C(=O)CNC` (configuration not stated) was tested, and the “% Inhibition” value was -2% and the Z score was 0.17. In the case of `COc1ccc(CCC(=O)Nc2cc(-c3ccsc3)no2)cc1`, the “% Inhibition” value is reported as -4% and the Z score is reported as 0.41. In the case of `CCCn1ncc(C(=O)NCc2csc(N3CCCC3)n2)c1C`, the “% Inhibition” value is reported as -3% and the Z score is reported as 0.56.
